Test results as given in publication PMC7320043.
These are yes or no findings as the source states them, for the method shown. Some results given as binding are weak or reduced against the parent protein; the word gives no strength. Where a sequence is shown, tags or fusion partners need not be part of it.

B1: Kelch-like 12 (Drosophila), two-hybrid prey (domain or fragment, UniProt Q53G59 1-162)
chain: MGGIMAPKDIMTNTHAKSILNSMNSLRKSNTLCDVTLRVEQKDFPAHRIVLAACSDYFCAMFTSELSEKGKPYVDIQGLTASTMEILLDFVYTETVHVTVENVQELLPAACLLQLKGVKQACCEFLESQLDPSNCLGIRDFAETHNCVDLMQAAEVFSQKHF
B2: Rearranged L-myc fusion, two-hybrid prey (domain or fragment, UniProt Q13129 1670-1914)
chain: GTLKCNHSSKTTSLEQCNIVQPPPPCKIENSIPNPNGTESGTYFTSFQLPLPRIKESETRQHSSGQENTVKNPTHVPKENFRKHSQPRSFDLKTYKPMGFESSFLKFIQESEEKEDDFDDWEPSEHLTLSNSSQSSNDLTGNVVANNMVNDSEPEVDIPHSSSDSTIHENLTAIPPLIVAETTTVPSLENLRVVLDKALTDCGELALKQLHYLRPVVVLERSKFSTPILDLFPTKKTDELCVGSS
B3: EURL/Chromosome 21 open reading frame 91, two-hybrid prey (domain or fragment, UniProt Q9NYK6 1-178)
chain: MNEEEQFVNIDLNDDNICSVCKLGTDKETLSFCHICFELNIEGVPKSDLLHTKSLRGHKDCFEKYHLIANQGCPRSKLSKSTYEEVKTILSKKINWIVQYAQNKDLDSDSECSKNPQHHLFNFRHKPEEKLLPQFDSQVPKYSAKWIDGSAGGISNCTQRILEQRENTDFGLSMLQDS
B4: Acyl-CoA synthetase bubblegum family member 2, two-hybrid prey (domain or fragment, UniProt Q5FVE4 528-666)
chain: PVETLVKKKIPIISNAMLVGDKLKFLSMLLTLKCEMNQMSGEPLDKLNFEAINFCRGLGSQASTVTEIVKQQDPLVYKAIQQGINAVNQEAMNNAQRIEKWVILEKDFSIYGGELGPMMKLKRHFVAQKYKKQIDHMYH
B5: Electron-transfer-flavoprotein, alpha polypeptide, two-hybrid prey (domain or fragment, UniProt P13804 103-284)
chain: FNYTHICAGASAFGKNLLPRVAAKLEVAPISDIIAIKSPDTFVRTIYAGNALCTVKCDEKVKVFSVRGTSFDAAATSGGSASSEKASSTSPVEISEWLDQKLTKSDRPELTGAKVVVSGGRGLKSGENFKLLYDLADQLHAAVGASRAAVDAGFVPNDMQVGQTGKIVAPELYIAVGISGAI
B6: Adenylate kinase domain containing 1, two-hybrid prey (domain or fragment, UniProt Q5TCS8 415-624)
chain: YKGKVVDYAQLVQPRFDKARETLVENTIAEATAAAIKVVKEKLLRELQARKQAETALREFQRQYEKMEFGVFPMEATHSSIDEEGYIQGSQRDRGSSLVDTEEAKTKSENVLHDQAAKVDKDDGKETGETFTFKRHSQDASQDVKLYSDTAPTEDLIEEVTADHPEVVTMIEETIKMSQDINFEQPYEKHAEILQEVLGEVMEENKDRFP
B7: Secretogranin V (7B2 protein), two-hybrid prey (domain or fragment, UniProt P05408 1-188)
chain: MVSRMVSTMLSGLLFWLASGWTPAFAYSPRTPDRVSEADIQRLLHGVMEQLGIARPRVEYPAHQAMNLVGPQSIEGGAHEGLQHLGPFGNIPNIVAELTGDNIPKDFSEDQGYPDPPNPCPVGKTADDGCLENTPDTAEFSREFQLHQHLFDPEHDYPGLGKWNKKLLYEKMKGGERRKRRSVNPYLQ
B8: Taspase, threonine aspartase, 1, two-hybrid prey (domain or fragment, UniProt Q9H6P5 135-318)
chain: GIKNPVSVANRLLCEGQKGKLSAGRIPPCFLVGEGAYRWAVDHGIPSCPPNIMTTRFSLAAFKRNKRKLELAERVDTDFMQLKKRRQSSEKENDSGTLDTVGAVVVDHEGNVAAAVSSGGLALKHPGRVGQAALYGCGCWAENTGAHNPYSTAVSTSGCGEHLVRTILARECSHALQAEDAHQA
B9: Kelch-like 7 (Drosophila), two-hybrid prey (domain or fragment, UniProt Q8IXQ5 37-240)
chain: MRKQKTLCDVILMVQERKIPAHRVVLAAASHFFNLMFTTNMLESKSFEVELKDAEPDIIEQLVEFAYTARISVNSNNVQSLLDAANQYQIEPVKKMCVDFLKEQVDASNCLGISVLAECLDCPELKATADDFIHQHFTEVYKTDEFLQLDVKRVTHLLNQDTLTVRAEDQVYDAAVRWLKYDEPNRQPFMVDILAKVRFPLISK
B10: PHD finger protein 7, two-hybrid prey (domain or fragment, UniProt Q9BWX1 50-236)
chain: LQKDNISVHYFCLILSSKLPQRGQSNRGFHGFLPEDIKKEAARASRKICFVCKKKGAAINCQKDQCLRNFHLPCGQERGCLSQFFGEYKSFCDKHRPTQNIQHGHVGEESCILCCEDLSQQSVENIQSPCCSQAIYHRKCIQKYAHTSAKHFFKCPQCNNRKEFPQEMLRMGIHIPDRDAAWELEPG
B11: Zinc finger, MYM-type 2, two-hybrid prey (domain or fragment, UniProt Q9UBW7 141-390)
chain: RRPPETKNRTNDVDFSTSSFSRSKVNAGMGNSGITTEPDSEIQIANVTTLETGVSSVNDGQLENTDGRDMNLMITHVTSLQNTNLGDVSNGLQSSNFGVNIQTYTPSLTSQTKTGVGPFNPGRMNVAGDVFQNGESATHHNPDSWISQSASFPRNQKQPGVDSLSPVASLPKQIFQPSVQQQPTKPVKVTCANCKKPLQKGQTAYQRKGSAHLFCSTTCLSSFSHKPAPKKLCVMCKKDITTMKGTIVAQ
B12: Indoleamine 2,3-dioxygenase 1, two-hybrid prey (domain or fragment, UniProt P14902 14-128)
chain: EYHIDEEVGFALPNPQENLPDFYNDWMFIAKHLPDLIESGQLRERVEKLNMLSIDHLTDHKSQRLARLVLGCITMAYVWGKGHGDVRKVLPRNIAVPYCQLSKKLELPPILVYAD
B13: Proteasome (prosome, macropain) activator subunit 4, two-hybrid prey (domain or fragment, UniProt Q14997 367-420)
chain: RLHRERYKKPSWLTPVPDSHKLTDQDVTDFVQCIIQPVLLAMFSKTGSLEAAQA
B14: Transforming growth factor, beta-induced, 68 kDa, two-hybrid prey (domain or fragment, UniProt Q15582 115-326)
chain: STTTQLYTDRTEKLRPEMEGPGSFTIFAPSNEAWASLPAEVLDSLVSNVNIELLNALRYHMVGRRVLTDELKHGMTLTSMYQNSNIQIHHYPNGIVTVNCARLLKADHHATNGVVHLIDKVISTITNNIQQIIEIEDTFETLRAAVAASGLNTMLEGNGQYTLLAPTNEAFEKIPSETLNRILGDPEALRDLLNNHILKSAMCAEAIVAGLS
B15: Serine carboxypeptidase 1, two-hybrid prey (domain or fragment, UniProt Q9HB40 273-452)
chain: LTKSTPTSTMESSLEFTQSHLVCLCQRHVRHLQRDALSQLMNGPIRKKLKIIPEDQSWGGQATNVFVNMEEDFMKPVISIVDELLEAGINVTVYNGQLDLIVDTMGQEAWVRKLKWPELPKFSQLKWKALYSDPKSLETSAFVKSYKNLAFYWILKAGHMVPSDQGDMALKMMRLVTQQE
B16: Filamin A interacting protein 1-like, two-hybrid prey (domain or fragment, UniProt Q4L180 508-705)
chain: SEKLKKTEDKLQAASSQLQVEQNKVTTVTEKLIEETKRALKSKTDVEEKMYSVTKERDDLKNKLKAEEEKGNDLLSRVNMLKNRLQSLEAIEKDFLKNKLNQDSGKSTTALHQENNKIKELSQEVERLKLKLKDMKAIEDDLMKTEDEYETLERRYANERDKAQFLSKELEHVKMELAKYKLAEKTETSHEQWLFKRL
B17: Acid phosphatase-like 2, two-hybrid prey (domain or fragment, UniProt Q8TE99 266-464)
chain: LKNSQLEKTYGEMAKIVDVPTKQLRAANPIDSMLCHFCHNVSFPCTRNGCVDMEHFKVIKTHQIEDERERREKKLYFGYSLLGAHPILNQTIGRMQRATEGRKEELFALYSAHDVTLSPVLSALGLSEARFPRFAARLIFELWQDREKPSEHSVRILYNGVDVTFHTSFCQDHHKRSPKPMCPLENLVRFVKRDMFVAL
B18: Family with sequence similarity 190, member A, two-hybrid prey (domain or fragment, UniProt Q9C0I3 555-726)
chain: MEPMIEMKKREEPEFPEPSKQNLSLKLTKDVDQEARCSHISRMPNSPSADWPLQGVEENGGIDSLPFRLMLQDCTAVKTLLLKMKRVLQESADMSPASSTTSLPVSPLTEEPVPFKDIMKDECSMLKLQLKEKDELISQLQEELGKVRHLQKAFASRVDKSTQTELLCYDGL
B19: Propionyl CoA carboxylase, beta polypeptide, two-hybrid prey (domain or fragment, UniProt P05166 172-468)
chain: SLAGYADIFLRNVTASGVIPQISLIMGPCAGGAVYSPALTDFTFMVKDTSYLFITGPDVVKSVTNEDVTQEELGGAKTHTTMSGVAHRAFENDVDALCNLRDFFNYLPLSSQDPAPVRECHDPSDRLVPELDTIVPLESTKAYNMVDIIHSVVDEREFFEIMPNYAKNIIVGFARMNGRTVGIVGNQPKVASGCLDINSSVKGARFVRFCDAFNIPLITFVDVPGFLPGTAQEYGGIIRHGAKLLYAFAEATVPKVTVITRKAYGGAYDVMSSKHLCGDTNYAWPTAEIAVMGAKGA
B20: Tropomodulin 1, two-hybrid prey (domain or fragment, UniProt P28289 66-334)
chain: ELLDHLEKQAKEFKDREDLVPYTGEKRGKVWVPKQKPLDPVLESVTLEPELEEALANASDAELCDIAAILGMHTLMSNQQYYQALSSSSIMNKEGLNSVIKPTQYKPVPDEEPNSTDVEETLERIKNNDPKLEEVNLNNIRNIPIPTLKAYAEALKENSYVKKFSIVGTRSNDPVAYALAEMLKENKVLKTLNVESNFISGAGILRLVEALPYNTSLVEMKIDNQSQPLGNKVEMEIVSMLEKNATLLKFGYHFTQQGPRLRASNAMMN
B21: Intraflagellar transport 46 homolog (Chlamydomonas), two-hybrid prey (domain or fragment, UniProt Q9NQC8 1-216)
chain: MADNSSDECEEENNKEKKKTSQLTPQRGFSENEDDDDDDDDSSETDSDSDDDDEEHGAPLEGAYDPADYEHLPVSAEIKELFQYISRYTPQLIDLDHKLKPFIPDFIPAVGDIDAFLKVPRPDGKPDNLGLLVLDEPSTKQSDPTVLSLWLTENSKQHNITQHMKVKSLEDAEKNPKAIDTWIESISELHRSKPPATVHYTRPMPDIDTLMQEWSP
B22: S1 RNA binding domain 1, two-hybrid prey (domain or fragment, UniProt Q8N5C6 260-491)
chain: SLREVQQTLEELRAVAKKVHSTIQKIKKEGKMSECLLKAMLNCKTFEELEHVSAPYKTGSKGTKAQRARQLGLEGAARALLEKPGELSLLSYIRPDVKGLSTLQDIEIGVQHILADMIAKDKDTLDFIRNLCQKRHVCIQSSLAKVSSKKVNEKDVDKFLLYQHFSCNIRNIHHHQILAINRGENLKVLTVKVNISDGVKDEFCRWCIQNRWRPRSFARPELMKILYNSLND
B23: Coiled-coil domain containing 147, two-hybrid prey (domain or fragment, UniProt Q5T655 478-684)
chain: AESEIKLKQQQNLYEAVRSDRNLYSKNLVEAQDEITDMKRKLKIMIHQVDELKEDISAKESALVKLHLEQQRIEKEKETLKAELQKLRQQALETKHFIEKQEAEERKLLRIIAEADGERLRQKKELDQVISERDILGSQLVRRNDELALLYEKIKIQQSVLNKGESQYNQRLEDMRILRLEIKKLRREKGILARSMANVEELRQEFF
B24: Component of oligomeric golgi complex 2, two-hybrid prey (domain or fragment, UniProt Q14746 457-534)
chain: FVNELSLRPISNESPKEIKKPLVTGSKEPSITQGNTEDQGSGPSETKPVVSISRTQLVYVVADLDKLQEQLPELLEII
B25: Transmembrane protein 126A, two-hybrid prey (domain or fragment, UniProt Q9H061 89-195)
chain: FPLNTGDLDCETCTITRSGLTGLVIGGLYPVFLAIPVNGGLAARYQSALLPHKGNILSYWIRTSKPVFRKMLFPILLQTMFSAYLGSEQYKLLIKALQLSEPGKEIH

These binders were tested against Fbxl17 two-hybrid bait, FBD and LRRs (321-701aa) (human) (UniProt Q9UF56) (assay: two-hybrid; Matchmaker Gold system (Clontech); bait Fbxl17 aa 321 to 701 in pGBKT7; screen of a normalized universal human cDNA library (Mate & Plate) with prey fused to the Gal4 activation domain).

| Binder | binding |
| --- | --- |
| B1 | binds |
| B2 | binds |
| B3 | binds |
| B4 | binds |
| B5 | binds |
| KPIRNLNGHSIGQYRIHAGK (domain or fragment, UniProt P50579 323-342) [Methionyl aminopeptidase 2, two-hybrid prey] | binds |
| B6 | binds |
| B7 | binds |
| B8 | binds |
| B9 | binds |
| B10 | binds |
| B11 | binds |
| B12 | binds |
| B13 | binds |
| B14 | binds |
| B15 | binds |
| B16 | binds |
| B17 | binds |
| B18 | binds |
| B19 | binds |
| B20 | binds |
| B21 | binds |
| B22 | binds |
| B23 | binds |
| B24 | binds |
| B25 | binds |
